From paper PMC4336329 (PLoS ONE, 2015)
About 2,200 (0.71%) of roughly 310,000 compounds showed an effect of 50% or more. The effect is printed as a negative number. The list shows a part of the results.

Target: human ether-à-go-go-related gene (hERG) potassium channel (human, UniProt Q12809)
Test: primary screen, population patch clamp on CHO cells stably expressing hERG

human ether-à-go-go-related gene (hERG) potassium channel, sequence (Q12809 whole entry, looked up): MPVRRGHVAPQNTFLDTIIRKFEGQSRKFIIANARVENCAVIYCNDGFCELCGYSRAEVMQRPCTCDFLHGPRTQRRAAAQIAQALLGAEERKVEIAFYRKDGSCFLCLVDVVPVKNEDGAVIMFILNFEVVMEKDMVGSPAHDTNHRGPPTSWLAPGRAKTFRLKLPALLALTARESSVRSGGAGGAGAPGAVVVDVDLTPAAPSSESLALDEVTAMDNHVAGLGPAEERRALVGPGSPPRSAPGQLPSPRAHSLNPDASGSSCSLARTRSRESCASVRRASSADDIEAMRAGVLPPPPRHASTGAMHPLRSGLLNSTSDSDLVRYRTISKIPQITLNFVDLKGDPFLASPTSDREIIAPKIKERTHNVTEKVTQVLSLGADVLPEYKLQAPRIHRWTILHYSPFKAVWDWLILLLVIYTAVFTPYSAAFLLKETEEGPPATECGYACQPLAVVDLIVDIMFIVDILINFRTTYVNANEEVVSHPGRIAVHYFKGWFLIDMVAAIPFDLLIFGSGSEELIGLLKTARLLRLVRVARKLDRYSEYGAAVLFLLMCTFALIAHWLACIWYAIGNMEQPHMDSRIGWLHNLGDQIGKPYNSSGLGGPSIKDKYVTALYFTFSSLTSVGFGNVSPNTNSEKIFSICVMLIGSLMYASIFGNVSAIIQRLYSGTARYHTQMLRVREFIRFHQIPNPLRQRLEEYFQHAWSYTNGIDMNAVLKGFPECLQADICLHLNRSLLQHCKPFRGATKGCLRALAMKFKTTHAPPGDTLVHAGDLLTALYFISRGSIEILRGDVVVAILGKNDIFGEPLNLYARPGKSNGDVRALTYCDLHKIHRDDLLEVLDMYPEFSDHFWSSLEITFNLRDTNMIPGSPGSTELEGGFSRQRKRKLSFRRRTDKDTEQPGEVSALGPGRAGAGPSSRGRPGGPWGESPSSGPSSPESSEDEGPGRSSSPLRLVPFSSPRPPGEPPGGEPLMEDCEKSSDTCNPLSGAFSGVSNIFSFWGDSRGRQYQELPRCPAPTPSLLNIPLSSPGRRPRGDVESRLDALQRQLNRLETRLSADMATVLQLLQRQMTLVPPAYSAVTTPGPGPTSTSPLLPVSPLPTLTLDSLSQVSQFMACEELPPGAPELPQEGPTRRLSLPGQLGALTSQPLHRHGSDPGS

| Structure (SMILES) | hERG current change (%, negative = inhibition) at 1uM [%] |
| --- | --- |
| S=c1[nH]nc(CN2CCCCC2)n1Cc1ccccc1 | 4.89 |
| CCN(CC)CCNC(=O)CCCCCn1c(=O)[nH]c2cc(C(=O)OC)ccc2c1=O | 0.0728 |
| O=C(CCCN1C(=O)/C(=C/c2cccs2)SC1=S)Nc1cc([N+](=O)[O-])ccc1O | 26 |
| CC(NC(=O)C1CSC2(C)CCC(=O)N12)c1ccccc1Cl (stereo not drawn) | 3.77 |
| NC(=O)CSCc1nc2ccccc2s1 | 18.1 |
| CCC[n+]1c(C)sc2c3c(ccc21)CCCC3.[I-] | 5.2 |
| O=C(Nc1cccc(-c2cscn2)c1)C1CCN(Cc2ccsc2)CC1 | -18.8 |
| N/C(=N\OC(=O)c1cccc(Br)c1)c1ccc([N+](=O)[O-])cc1 | 16.7 |
| C=CCN1C(=O)C2(OCCCO2)c2c(C)ccc(C)c21 | 7.91 |
| COCc1cc(C)nc2sc(C(=O)Nc3ccccc3C)c(N)c12 | 8.84 |
| CCC(C)(C)NC(=O)C(c1ccc(F)cc1)N(Cc1cccs1)C(=O)c1cnccn1 (stereo not drawn) | 3.55 |
| Cc1c(-c2nc(N)nc(Nc3ccccc3F)n2)oc2ccccc12 | 18.9 |
| CCn1c(=S)[nH]c2cc(C(=O)O)ccc21 | 9.05 |
| CCOCCCn1c(-c2ccc(Cl)cc2)n[nH]c1=S | 1.97 |
| O=C(CSCc1ccco1)NC1CCCC1 | 13.6 |
| CCOC(=O)Cc1csc(NC(=O)CSc2nnc(-c3ccc(OC)cc3)n2C)n1 | -13.1 |
| C=CCC1(CC=C)CCCN1C(=O)c1cc(COc2cccc(OC)c2)on1 | 14 |
| Cc1ccccc1NS(=O)(=O)c1cc(S(C)(=O)=O)ccc1C | 18.7 |
| COc1ccc(NC(=O)C(=O)NCCN2CCN(C(=O)c3ccco3)CC2)cc1 | 5.39 |
| COc1ccccc1C(=O)NNC(=S)NC(=O)c1cc(OC)c(OC)c(OC)c1 | 10.2 |

| Structure (SMILES) | hERG current change (%, negative = inhibition) at 1uM [%] |
| --- | --- |
| O=[N+]([O-])c1cccc(-c2noc(-c3cccs3)n2)c1 | 11.6 |
| CCn1c(SCC(=O)Nc2cc(F)ccc2C)nnc1-c1ccccc1O | 5.8 |
| C=CCOc1ccc(/C=C/C(=O)OCC(=O)NCc2ccco2)cc1 | 10.3 |
| CCC(C)n1c(O)c(C=NCc2cccnc2)c(=O)[nH]c1=S (stereo not drawn) | 8.43 |
| COCCC(=O)N1CCC(n2nccc2NC(=O)CCc2ccccc2)CC1 | 13.1 |
| COCCCNc1oc(-c2ccccc2F)nc1C#N | 0.0132 |
| COC(=O)c1ccc(/C=C/C(=O)O)cc1 | 13 |
| CCCCn1c(NCCO)nc2ccccc21 | 5.59 |
| Cc1cc(C(=O)NNc2ccc(F)cc2)no1 | 11.8 |
| O=P(O)(COc1ccccc1)COc1ccccc1 | 2.49 |
| Cc1ccc(CNC(=O)CN(c2cccc([N+](=O)[O-])c2)S(=O)(=O)c2ccccc2)cc1 | 2.27 |
| COc1ccc(NC(=O)NC2(C(=O)N3CCOCC3)CCCCC2)cc1 | 13.7 |
| Cc1cccc(C(=O)OC2CCCN(C)C2)c1C.Cl (stereo not drawn) | 7.67 |
| Nn1c(SCC(=O)N2CCCCCC2)nnc1-c1ccco1 | 3.51 |
| COC(=O)c1c(-c2ccccc2)csc1NC(=O)CSc1ncnc2sc(C)c(C)c12 | 5.85 |
| CC12CCC(C(=O)N(CC3CO3)C1=O)C2(C)C (stereo not drawn) | 11 |
| Cc1cccc(N2CCN(C(=O)C3CCN(S(=O)(=O)c4c(C)noc4C)CC3)CC2)c1C | 12.8 |
| O=C(Nc1ccc(N2CCOCC2)nc1)c1ccc(C(F)(F)F)cc1 | 5.74 |
| Cc1ccc(N2CC(C(=O)Nc3cc(C)on3)CC2=O)cc1 (stereo not drawn) | 8.12 |
| COc1cccc(OC)c1C(=O)N1CCN(c2ccccn2)CC1 | 10.8 |

| Structure (SMILES) | hERG current change (%, negative = inhibition) at 1uM [%] |
| --- | --- |
| C/C(=N/NC(=O)c1cc(-c2ccc(Br)s2)[nH]n1)c1ccco1 | 18 |
| O=C1C2C3CCC(O3)C2C(=O)N1c1cccc(O)c1 (stereo not drawn) | 12.7 |
| CCOc1ccccc1NC(=O)Nc1cccc(S(N)(=O)=O)c1 | 3.48 |
| COc1ccc(CN2C(=O)N(c3ccccc3)C(=O)C2CC(=O)Nc2ccccc2)cc1OC (stereo not drawn) | 11 |
| CN(C)c1ccc(C=C2C(=O)OC(C)(C(C)(C)C)OC2=O)cc1 (stereo not drawn) | 8.32 |
| CCOC(=O)c1ccc(S(=O)(=O)NNC(=O)c2ccc3c(c2)nc(C)n3CC)cc1 | 11 |
| O=C(OCC(O)C(O)COC(=O)c1ccccc1)c1ccccc1 (stereo not drawn) | 6.91 |
| O=C(CSc1nc2ccccc2[nH]1)Nc1ccc2c(c1)OCCO2 | 4.8 |
| COc1ccc(NC(=O)CSc2nc(N)c3cc4c(nc3n2)CC(C)(C)OC4)cc1 | 14.3 |
| CN(C)CCn1c(=O)n(Cc2ccco2)c(=O)c2c3c(sc21)CCCCC3 | -11.6 |
| Cc1ccc(S(=O)(=O)CCC(=O)Nc2nc(-c3ccncc3)cs2)cc1 | 12.1 |
| COCCOc1ccc(C(F)(F)F)cc1NC(=O)COC(=O)C1=COCCO1 | -22.7 |
| COC(=O)[C@H](CC(C)C)NC(=O)NCc1ccc(Cl)cc1 | 7.71 |
| O=C1N=C2SCCN2/C1=C\c1c(Cl)cccc1Cl | 7.7 |
| O=C1N/C(=N\N=C\c2cccs2)SC1Cc1ccc(Cl)c(Cl)c1 (stereo not drawn) | 11.8 |
| Cc1ccc(C(=O)N/N=C\c2cccs2)cn1 | 1.82 |
| O=C(CN1C(=O)NC(CCc2ccccc2)C1=O)NC1CC1 (stereo not drawn) | 13.5 |
| NC(=O)c1ccc(N=Nc2c(-c3ccccc3)[nH]n(-c3ccccc3)c2=O)cc1 | 11.5 |
| Cc1ccccc1C(=O)NNC(=O)C1CCN(c2ncccn2)CC1 | 11.8 |
| O=C(c1ccc(-c2nc3ccccc3s2)s1)N1CCOCC1 | 8.45 |
